{
  "source": "PubChem BioAssay AID1345082",
  "about": "(National Center for Advancing Translational Sciences (NCATS), 2018)",
  "note": "The campaign covered roughly 94,000 compounds. About 4,000 (4.3%) were called active. Inconclusive results, whose numbers are uncertain, are shown with a selection of clear calls. Calls come from the whole dose curve; as a rule, active = well fitted inhibition curve with a large enough effect; inconclusive = small, poorly fitted or top-dose-only effect; inactive = no such curve, though single readings can be large or run the other way. Where the call is inconclusive, the potency comes from a doubtful curve fit. % is set by controls: 0 for no effect and ±100 for the full control effect; potency is the fitted concentration of half-maximal effect; tags give direction and shape of the fitted curve.",
  "data": [
    {"assay": "Cytotoxic Profiling in NIH 3T3 Cell Line of Diverse Libraries Using Quantitative High-Throughput Screening; note: nearly all actives have a fitted effect of over 55% in size", "details": "NIH 3T3 viability, CellTiter-Glo ATP luminescence, 48-72 h; activity change, negative = cytotoxicity: at 96.7 µM (top of the series) unless noted; series mostly up to 96.7 µM", "procedure,_shortened": "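Cells were seeded at 400 per well, treated with pin-transferred compound, and kept 48 or 72 hr at 37 °C before CellTiter-Glo addition and luminescence imaging of cellular ATP.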", "values": [
      {"smiles": "O=C(Nc1ccc(F)c(F)c1)c1cc2n(n1)CC(c1ccc(Br)cc1)OC2", "note": "(stereo unspecified)", "Potency": "inconclusive: 50.1 µM [inhibitor, partial curve, poor fit]"},
      {"smiles": "COc1ccccc1OCCNC(=O)C1CCN(c2cc(C(F)(F)F)nc(C)n2)CC1", "Potency": "inconclusive: 50.1 µM [inhibitor, partial curve, poor fit]"},
      {"smiles": "O=C(O)C[C@@H]1CCN(S(=O)(=O)c2ccc(F)cc2)C[C@@H]1CC1=NCCc2cc(F)ccc21", "activity change, negative = cytotoxicity": "inactive: -21.2%"},
      {"smiles": "COc1cc(CN2CCN(c3noc(C(C)C)n3)CC2CCO)cc(OC)c1", "note": "(stereo unspecified)", "Potency": "inconclusive: 44.7 µM [inhibitor, partial curve, poor fit]"},
      {"smiles": "O=C(Cc1ccccc1)N1CCCC2(CC(c3cccc(C(F)(F)F)c3)=NO2)C1", "note": "(stereo unspecified)", "Potency": "inconclusive: 50.1 µM [inhibitor, partial curve, poor fit]"},
      {"smiles": "O=C(Cc1ccccc1)NCC1CN(Cc2ccc3[nH]ccc3c2)CC12CN(c1ccccc1)C2", "note": "(stereo unspecified)", "Potency": "active: 22.4 µM"},
      {"smiles": "Cn1cc(CN2C[C@H](C(=O)Nc3ccc(F)cc3)C[C@H]2c2cccc(C(F)(F)F)c2)cn1", "Potency": "inconclusive: 44.7 µM [inhibitor, partial curve, poor fit]"},
      {"smiles": "COc1cc(-c2onc(C)c2C(=O)NCC2CCCO2)cc(OC)c1OC", "note": "(stereo unspecified)", "activity change, negative = cytotoxicity": "inactive: -19.2%"},
      {"smiles": "CC(=O)Nc1ccc(CN2CCC3(CC2)CC(c2cccc(C(F)(F)F)c2)=NO3)cc1", "Potency": "active: 35.5 µM"},
      {"smiles": "COc1ccc(NC(=O)N2C[C@@H]3C[C@H](C2)c2c(NC(=O)c4ccc5c(c4)OCO5)ccc(=O)n2C3)cc1", "activity change, negative = cytotoxicity": "inactive: 0.483%"},
      {"smiles": "CN1Cc2ncnc(N3CCN(Cc4ccccc4)CC3)c2CN(c2ccc([N+](=O)[O-])cc2)C1=O", "Potency": "inconclusive: 50.1 µM [inhibitor, partial curve, poor fit]"},
      {"smiles": "O=C(CCCn1cncn1)N1C[C@H](CO)C[C@H](CN2CCOCC2)C1", "outcome": "inactive"},
      {"smiles": "c1cc(CN2CCOC[C@H]2c2ncc(-c3ccncc3)[nH]2)ccn1", "Potency": "inconclusive: 112 µM [inhibitor, single point]"},
      {"smiles": "Cc1cc(C)cc(C(=O)N2c3ccccc3CC2c2nc(C3CC3)no2)c1", "note": "(stereo unspecified)", "Potency": "inconclusive: 70.8 µM [inhibitor, single point]"},
      {"smiles": "COc1ccccc1-c1cc(C(=O)N2CCOCC2)nn2cccc12", "activity change, negative = cytotoxicity": "inactive: -6.86%"},
      {"smiles": "O=c1ncn(Cc2ccccc2)c2ccc(-c3ccc(F)cc3F)nc12", "Potency": "active: 89.1 µM"},
      {"smiles": "COCCNC(=O)[C@@H]1C[C@H](Oc2ccccc2)CN1C(=O)CC(C)C", "outcome": "inactive"},
      {"smiles": "COc1cc(OC)cc(C(=O)N2CCC(c3n[nH]c(=O)n3Cc3ccc(F)cc3)CC2)c1", "Potency": "active: 17.8 µM"},
      {"smiles": "Cc1ccc(-c2nc(C(=O)N3CCN(c4ccc(C)cc4C)CC3)no2)cc1", "Potency": "inconclusive: 70.8 µM [inhibitor, single point]"},
      {"smiles": "O=C(C1CCOCC1)N1CC(Oc2cccc(-c3nc(-c4ccccc4)no3)c2)C1", "Potency": "inconclusive: 44.7 µM [inhibitor, partial curve, poor fit]"},
      {"smiles": "COc1cccc(CN2Cc3cc(NC(=O)COc4ccccc4)ccc3OC(C)C2=O)c1", "note": "(stereo unspecified)", "Potency": "inconclusive: 44.7 µM [inhibitor, partial curve, poor fit]"},
      {"smiles": "Cc1[nH]ncc1CNC(=O)C1CCN(c2cn[nH]c(=O)c2)C1", "note": "(stereo unspecified)", "outcome": "inactive"},
      {"smiles": "C=CCNC(=O)c1cnn2c1CN(C(=O)c1ccccc1F)CC2", "activity change, negative = cytotoxicity": "inactive: -9.47%"},
      {"smiles": "COc1cccc(C(=O)Nc2cc(-c3ccncc3)nn2C)c1", "Potency": "inconclusive: 56.2 µM [inhibitor, partial curve, poor fit]"},
      {"smiles": "CC(C)Cn1c(=O)c(C(=O)NCc2ccc3c(c2)OCO3)nc2cccnc21", "Potency": "inconclusive: 50.1 µM [inhibitor, partial curve, poor fit]"},
      {"smiles": "O=C(CNC(=O)c1ccc(-c2cnc3ccccc3c2)cc1)NCc1cccc(F)c1", "activity change, negative = cytotoxicity": "inactive: -29.5%"},
      {"smiles": "CCOC(=O)c1cccc(NC(=O)C2=CC(C)(C)Oc3ccc(OC)cc32)c1", "Potency": "active: 28.2 µM"},
      {"smiles": "Fc1ccc2c(c1)nc1n2[C@@H](CN(Cc2ccccn2)Cc2ccccn2)COC1", "Potency": "inconclusive: 56.2 µM [inhibitor, full curve, poor fit]"},
      {"smiles": "COc1ccc2[nH]c3c(c2c1)CCNC31CCN(C(=O)C2CCN2C2CCCCC2)CC1", "note": "(stereo unspecified)", "Potency": "inconclusive: 50.1 µM [inhibitor, partial curve, poor fit]"},
      {"smiles": "CC(C)(C)c1nnc2ccc(C(=O)NCc3cccc(Cl)c3)cn12", "Potency": "inconclusive: 79.4 µM [inhibitor, partial curve]"},
      {"smiles": "COC1C(=O)N(C2CCN(S(=O)(=O)Cc3ccccc3F)CC2)C12CCOCC2", "note": "(stereo unspecified)", "activity change, negative = cytotoxicity": "inactive: -6%"},
      {"smiles": "CCN1CCN(Cc2cn(-c3ccccc3F)nc2-c2cc(C)sc2C)CC1", "Potency": "inconclusive: 56.2 µM [inhibitor, partial curve, poor fit]"},
      {"smiles": "CC(C)c1ccc(NC2=N[C@H]3[C@@H](O)[C@H](O)C[C@H](C(=O)NC4CCCC4)[C@H]3S2)cc1", "Potency": "inconclusive: 126 µM [inhibitor, single point]"},
      {"smiles": "Cc1cccc(OCCc2noc(C3CCCN(Cc4ccccc4C#N)C3)n2)c1", "note": "(stereo unspecified)", "Potency": "inconclusive: 50.1 µM [inhibitor, partial curve, poor fit]"},
      {"smiles": "COc1cccc(-c2ccccc2NC(=O)C2CCN(CC(=O)O)CC2)c1", "activity change, negative = cytotoxicity": "inactive: 3.02%"},
      {"smiles": "COc1ncc(CN2CCc3ncc(C(=O)Nc4ccccc4)n3CC2)cn1", "Potency": "inconclusive: 100 µM [inhibitor, partial curve]"},
      {"smiles": "O=C(Cc1cccc(Cl)c1)N1CCn2c(nnc2-c2ccccc2)C1", "Potency": "inconclusive: 50.1 µM [inhibitor, partial curve, poor fit]"},
      {"smiles": "Cc1noc(-c2ccc3c(c2)OCO3)c1C(=O)N1CCC(Cc2ccccc2)CC1", "Potency": "inconclusive: 56.2 µM [inhibitor, partial curve, poor fit]"},
      {"smiles": "COc1ccc2nc([C@H]3CCN(Cc4cccc(Cl)c4)C3)[nH]c2c1", "Potency": "inconclusive: 17.8 µM [inhibitor, full curve, poor fit]"},
      {"smiles": "CCS(=O)(=O)Nc1ccc(C2(C(=O)NCc3ccccc3)CCCCC2)cc1", "Potency": "inconclusive: 25.1 µM [inhibitor, partial curve]"},
      {"smiles": "Cn1ncc2c(C(=O)NCCCN3CCCCC3)cc(-c3ccccc3C(F)(F)F)nc21", "Potency": "inconclusive: 44.7 µM [inhibitor, partial curve, poor fit]"}
    ]}
  ]
}
